# In all, about 2,900 compounds were measured (“IRF Lucia reporter activity, fold change vs agonist alone”: median about 0.9, highest 2% from about 2.8 on). The list shows a part of the results.
# Experiments:
# RAW-Dual [1] = experiment: IRF Lucia reporter activity, fold change vs agonist alone; cytotoxicity flag (confluency mask): not cytotoxic; higher = enhanced IRF activity
# In short: (§1)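 Cytotoxic wells were those whose IncuCyte confluency was below 70% of agonist controls in both mask sets. The cells were RAW-Dual macrophages at 50,000 cells/well in DMEM on 384-well plates, dosed with 50 nL of library stock by pin tool, stimulated with a PRR agonist 1 h later, and kept at 37 °C, 5% CO2 for 20 hours. IRF and NF-κB reporter activity, as fold change over agonist-alone wells, came from supernatant read by QuantiLuc luminescence and QuantiBlue absorbance, respectively.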
# RAW-Dual [2] = experiment: IRF Lucia reporter activity, fold change vs agonist alone; higher = enhanced IRF activity; conditions: library stock concentration (final ~1000-fold dilution): 10 mM, agonist: MPLA (TLR4) […]
# In short: as §1
# RAW-Dual [3] = experiment: IRF Lucia reporter activity, fold change vs agonist alone; cytotoxicity flag (confluency mask): cytotoxic (confluency <70% of control); higher = enhanced IRF activity
# In short: as §1
# [4] = agonist: 3'3'-cGAMP (STING) 10 ug/mL
# [5] = cytotoxicity flag (confluency mask): not cytotoxic
# [6] = cytotoxicity flag (confluency mask): cytotoxic (confluency <70% of control)
smiles,measurement,setting,value
FC(F)F.N=C(N)NCCCC1NC(=O)C(CCCCN)NC(=O)C(Cc2ccc(O)cc2)NC(=O)C(CC(=O)O)NC(=O)CNC1=O.O=C(O)C(F)(F)F.O=CO (stereo not given) (library stock concentration (final ~1000-fold dilution): 10 mM),IRF Lucia reporter activity,RAW-Dual [1]; [4],1.13
same,IRF Lucia reporter activity,RAW-Dual [1]; agonist: LPS (TLR4) 0.1 ug/mL,0.737
N=C(N)NCCCC(N)C(=O)NCC(=O)NC(CC(=O)O)C(=O)O (stereo not given) (library stock concentration (final ~1000-fold dilution): 10 mM water),IRF Lucia reporter activity,RAW-Dual [1]; [4],1.31
same,IRF Lucia reporter activity,RAW-Dual [1]; agonist: LPS (TLR4) 0.1 ug/mL,0.942
Cl.Fc1ccc(C2CCNCC2COc2ccc3c(c2)OCO3)cc1 (stereo not given) (library stock concentration (final ~1000-fold dilution): 10 mM),IRF Lucia reporter activity,RAW-Dual [1]; [4],0.928
same,IRF Lucia reporter activity,RAW-Dual [1]; agonist: LPS (TLR4) 0.1 ug/mL,1.02
Cl.Fc1ccc(C2CCNCC2COc2ccc3c(c2)OCO3)cc1 (stereo not given),IRF Lucia reporter activity,RAW-Dual [2]; [5],1.35
CNC(=O)c1ccc(N2C(=S)N(c3ccc(C#N)c(C(F)(F)F)c3)C(=O)C2(C)C)cc1F,IRF Lucia reporter activity,RAW-Dual [2]; [5],1.18
CNC(=O)c1ccc(N2C(=S)N(c3ccc(C#N)c(C(F)(F)F)c3)C(=O)C2(C)C)cc1F (library stock concentration (final ~1000-fold dilution): 10 mM),IRF Lucia reporter activity,RAW-Dual [1]; [4],1.02
same,IRF Lucia reporter activity,RAW-Dual [1]; agonist: LPS (TLR4) 0.1 ug/mL,1.32
CCCc1ccc(OCC(=O)N(Cc2nc(-c3cccnc3)no2)C(C)C)cc1,IRF Lucia reporter activity,RAW-Dual [2]; [5],1.21
CCCc1ccc(OCC(=O)N(Cc2nc(-c3cccnc3)no2)C(C)C)cc1 (library stock concentration (final ~1000-fold dilution): 10 mM),IRF Lucia reporter activity,RAW-Dual [1]; [4],1.16
same,IRF Lucia reporter activity,RAW-Dual [1]; agonist: LPS (TLR4) 0.1 ug/mL,1.41
COc1ccc2c(OC3CC4C(=O)NC5(C(=O)NS(=O)(=O)C6CC6)CC5/C=C\CCCCN(C)C(=O)C4C3)cc(-c3nc(C(C)C)cs3)nc2c1C (stereo not given) (library stock concentration (final ~1000-fold dilution): 10 mM),IRF Lucia reporter activity,RAW-Dual [1]; [4],1.04
same,IRF Lucia reporter activity,RAW-Dual [1]; agonist: LPS (TLR4) 0.1 ug/mL,1.18
COc1ccc2c(OC3CC4C(=O)NC5(C(=O)NS(=O)(=O)C6CC6)CC5/C=C\CCCCN(C)C(=O)C4C3)cc(-c3nc(C(C)C)cs3)nc2c1C (stereo not given),IRF Lucia reporter activity,RAW-Dual [2]; [5],1.05
CC(C)(C)c1cc(NC(=O)Nc2ccc(-c3cn4c(n3)sc3cc(OCCN5CCOCC5)ccc34)cc2)no1 (library stock concentration (final ~1000-fold dilution): 10 mM),IRF Lucia reporter activity,RAW-Dual [1]; [4],0.0722
same,IRF Lucia reporter activity,RAW-Dual [1]; agonist: LPS (TLR4) 0.1 ug/mL,1.33
CC(C)(C)c1cc(NC(=O)Nc2ccc(-c3cn4c(n3)sc3cc(OCCN5CCOCC5)ccc34)cc2)no1,IRF Lucia reporter activity,RAW-Dual [2]; [5],1.03
CN1CCN(c2ccc(-c3cccc(CN4CCOCC4)c3)cc2NC(=O)c2c[nH]c(=O)cc2C(F)(F)F)CC1 (library stock concentration (final ~1000-fold dilution): 10 mM),IRF Lucia reporter activity,RAW-Dual [1]; [4],1.01
same,IRF Lucia reporter activity,RAW-Dual [1]; agonist: LPS (TLR4) 0.1 ug/mL,1.1
OCC1OC(O)CC(O)C1O (stereo not given),IRF Lucia reporter activity,RAW-Dual [2]; [5],0.993
OCC1OC(O)CC(O)C1O (stereo not given) (library stock concentration (final ~1000-fold dilution): 10 mM),IRF Lucia reporter activity,RAW-Dual [1]; [4],1.07
same,IRF Lucia reporter activity,RAW-Dual [1]; agonist: LPS (TLR4) 0.1 ug/mL,0.844
CCCCOc1c(C(=O)c2c(F)cc(C)cc2F)cnc2[nH]ncc12 (library stock concentration (final ~1000-fold dilution): 10 mM),IRF Lucia reporter activity,RAW-Dual [1]; [4],0.0978
same,IRF Lucia reporter activity,RAW-Dual [1]; agonist: LPS (TLR4) 0.1 ug/mL,0.134
CCCCOc1c(C(=O)c2c(F)cc(C)cc2F)cnc2[nH]ncc12,IRF Lucia reporter activity,RAW-Dual [2]; [5],0.0699
COc1cc2nccc(Oc3ccc(NC(=O)c4cn(C(C)C)c(=O)n(-c5ccc(F)cc5)c4=O)cc3F)c2cc1OC (library stock concentration (final ~1000-fold dilution): 10 mM),IRF Lucia reporter activity,RAW-Dual [1]; [4],0.694
same,IRF Lucia reporter activity,RAW-Dual [1]; agonist: LPS (TLR4) 0.1 ug/mL,0.703
Nc1nc2c(cnn2CCc2ccccc2)c2nc(-c3ccco3)nn12 (library stock concentration (final ~1000-fold dilution): 10 mM),IRF Lucia reporter activity,RAW-Dual [1]; [4],0.853
same,IRF Lucia reporter activity,RAW-Dual [1]; agonist: LPS (TLR4) 0.1 ug/mL,0.981
CNC(=O)c1c(F)cccc1Nc1nc(Nc2cc3c(cc2OC)CCN3C(=O)CN(C)C)nc2[nH]ccc12 (library stock concentration (final ~1000-fold dilution): 10 mM),IRF Lucia reporter activity,RAW-Dual [3]; [4],0.723
same,IRF Lucia reporter activity,RAW-Dual [3]; agonist: LPS (TLR4) 0.1 ug/mL,0.995
CNC(=O)c1c(F)cccc1Nc1nc(Nc2cc3c(cc2OC)CCN3C(=O)CN(C)C)nc2[nH]ccc12,IRF Lucia reporter activity,RAW-Dual [2]; [6],0.96
Cc1cccc(C)c1OCC(C)N.Cl (stereo not given) (library stock concentration (final ~1000-fold dilution): 10 mM),IRF Lucia reporter activity,RAW-Dual [1]; [4],1.09
same,IRF Lucia reporter activity,RAW-Dual [1]; agonist: LPS (TLR4) 0.1 ug/mL,1.09
Cc1cccc(C)c1OCC(C)N.Cl (stereo not given),IRF Lucia reporter activity,RAW-Dual [2]; [5],1.15
O=C(/C=C/c1cccc(S(=O)(=O)Nc2ccccc2)c1)NO (library stock concentration (final ~1000-fold dilution): 10 mM),IRF Lucia reporter activity,RAW-Dual [3]; [4],0.0878
same,IRF Lucia reporter activity,RAW-Dual [3]; agonist: LPS (TLR4) 0.1 ug/mL,0.448
O=C(/C=C/c1cccc(S(=O)(=O)Nc2ccccc2)c1)NO,IRF Lucia reporter activity,RAW-Dual [2]; [6],0.364
CN(C)C(=O)/C(C#N)=C/c1ccc(-c2nc3cnc4[nH]ccc4c3n2C2CCCCC2)o1 (library stock concentration (final ~1000-fold dilution): 10 mM),IRF Lucia reporter activity,RAW-Dual [1]; [4],0.21
same,IRF Lucia reporter activity,RAW-Dual [1]; agonist: LPS (TLR4) 0.1 ug/mL,0.458
CCn1c(=O)c2c(nc(/C=C/c3ccc(OC)c(OC)c3)n2C)n(CC)c1=O,IRF Lucia reporter activity,RAW-Dual [2]; [5],1.04
CCn1c(=O)c2c(nc(/C=C/c3ccc(OC)c(OC)c3)n2C)n(CC)c1=O (library stock concentration (final ~1000-fold dilution): 10 mM),IRF Lucia reporter activity,RAW-Dual [1]; [4],0.992
same,IRF Lucia reporter activity,RAW-Dual [1]; agonist: LPS (TLR4) 0.1 ug/mL,1.19

# From the supplement of paper PMC10037445
